Publication PMC6919601, “Identification of Plasmodium dipeptidyl aminopeptidase allosteric inhibitors by high throughput screening” (PLoS ONE, 2019)
Hit rate of the full screen: of about 110,000 compounds, about 230 (0.21%) showed an effect of 50% or more. The list shows a part of the results.

These compounds were tested against DPAP1 (Plasmodium falciparum, UniProt Q8IIJ9) (assay: primary screen, percent inhibition; read by cleavage of a fluorogenic dipeptide substrate; higher = more effect of the substance).
DPAP1, sequence (Q8IIJ9 whole entry, looked up): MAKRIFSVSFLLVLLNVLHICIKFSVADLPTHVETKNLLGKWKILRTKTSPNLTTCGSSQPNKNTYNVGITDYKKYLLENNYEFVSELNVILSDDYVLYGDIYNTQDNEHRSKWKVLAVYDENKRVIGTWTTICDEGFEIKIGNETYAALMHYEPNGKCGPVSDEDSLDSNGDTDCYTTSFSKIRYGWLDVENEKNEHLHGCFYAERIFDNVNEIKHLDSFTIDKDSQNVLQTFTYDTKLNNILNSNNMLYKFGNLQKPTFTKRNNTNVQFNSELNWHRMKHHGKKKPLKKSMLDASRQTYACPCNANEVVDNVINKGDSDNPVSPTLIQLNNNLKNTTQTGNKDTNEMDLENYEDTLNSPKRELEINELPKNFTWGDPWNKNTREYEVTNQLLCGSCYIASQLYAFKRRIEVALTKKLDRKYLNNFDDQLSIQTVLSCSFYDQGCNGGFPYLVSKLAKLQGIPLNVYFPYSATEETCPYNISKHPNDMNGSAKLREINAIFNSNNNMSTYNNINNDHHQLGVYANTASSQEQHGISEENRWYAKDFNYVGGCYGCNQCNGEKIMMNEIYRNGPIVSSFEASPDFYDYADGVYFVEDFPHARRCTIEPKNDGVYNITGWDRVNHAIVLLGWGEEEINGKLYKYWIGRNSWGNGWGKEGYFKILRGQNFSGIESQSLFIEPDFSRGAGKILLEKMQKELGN
Design: species or system P. falciparum D10 trophozoite lysates; single well
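Also: 30 min substrate incubation versus DMSO and 10 µM JCP410 controls.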

SMILES | % Inhibition @ 10 uM [%]
COCCNC(=O)C1CCCN(c2nnc(C)c3c(C)n(-c4ccc(OC)cc4)nc23)C1 (stereo not drawn) | 3.25
Cc1ccc(-n2cc(C#N)c(C(=O)c3ccccc3)n2)cc1 | -2.56
CCc1ccc(CNCc2c(C(=O)O)c(C)n(Cc3ccccc3C)c2C)cc1 | -11.3
O=C(Cn1nc(-c2ccc(Cl)cc2)ccc1=O)N1CCN(Cc2ccccc2)CC1 | -3.58
O=C(c1ccc([N+](=O)[O-])cc1)N1CCN(c2cccc(Cl)c2)CC1 | -4.3
CN1C(=C2C(=O)NC(=O)NC2=O)Sc2ccccc21 | -1.2
CCN1C(=O)CC(C(=O)Nc2ccccc2OC)S/C1=N\c1cccc(C(F)(F)F)c1 (stereo not drawn) | 3.8
Cc1ccc2nc(O)c3cc(C(=O)NCc4ccc(F)cc4)sc3c2c1 | 3.32
CCOC(=O)C1=C(C)N(C)C(C)=C(C(=O)OCC)C1c1ccncc1 | 3.47
CCCN1CCC(N2CCCCCCC2)CC1 | 1.38
CCOC(=O)N1CCN(CC(C)c2ccccc2)CC1 (stereo not drawn) | 3.35
Cc1cc(C)c(NC(=O)c2ccccc2)c(C)c1 | -0.546
O=C(NCCCN1CCCC1=O)C1CCN(c2nc3ccccc3n3cccc23)CC1 | -2.27
O=C(C1CC1c1ccccc1)N1CCC(c2ccccc2)C1 (stereo not drawn) | 1.63
COc1ccc(C(=O)Nc2ccc3ccccc3c2)cc1 | -1.48
COc1ccc(/N=C2/S/C(=C\c3cc(Cl)ccc3O)C(=O)N2C)cc1 | 11.8
CC(C)C[C@H](NC(=O)OCc1ccc2ccccc2c1)C(=O)NCC#N | 0.174
COc1ccccc1N1CCN(C(=O)c2ccc(C)cc2)CC1 | -4.4
CCc1cc(=O)oc2cc(C)cc(O)c12 | 1.37
CCNCC1OCCc2ccccc21 (stereo not drawn) | -10.2
CCSc1nnc(NC(=O)c2cc(=O)c3ccc(C)cc3o2)s1 | 1.9
CC1C2CC(C(S(=O)(=O)O)C2=O)C1(C)C (stereo not drawn) | -7.55
O=C(NCc1ccco1)NC1(C(F)(F)F)Oc2cc(Cl)c(Cl)cc2O1 | 2.84
CCCCc1ccc(N2CC(C(=O)Nc3ccccc3F)CC2=O)cc1 (stereo not drawn) | 0.726
CCOC(=O)c1c(NC(=O)CSC2=NN3CCCC(=O)N=C3S2)sc2c1CCC2 | 2.77

SMILES | % Inhibition @ 10 uM [%]
CC(=O)c1ccc(OCC(O)CN2CCCCC2C)cc1 (stereo not drawn) | 2.13
CCOc1ccc(/C=C2\CN(CC)CC3=C2OC(N)=C(C#N)C3c2ccc(OCC)cc2)cc1 (stereo not drawn) | -1.06
N#CC1=C(N)Oc2[nH]nc(-c3ccccn3)c2C1c1ccccc1F (stereo not drawn) | -10.4
O=[N+]([O-])c1ccc(-c2cc(-c3ccc([N+](=O)[O-])cc3)[nH]n2)cc1 | 3.01
CC(C)(C)C(=O)Nc1ccc(S(=O)(=O)c2ccc(NC(=O)C(C)(C)C)cc2)cc1 | 6.31
CCc1ccc(C(C)NC(=O)c2ccccc2)cc1 (stereo not drawn) | -3.27
CC1CCN(S(=O)(=O)c2ccc(NC(=O)[C@@H]3CCCC[C@@H]3C(=O)O)cc2)CC1 | -2.68
Cc1nc2sccn2c(=O)c1S(=O)(=O)N1CCC2(CC1)OCCO2 | -9.08
COc1ccc(-c2onc(C)c2C)cc1S(=O)(=O)N(C)Cc1cnn(-c2ccccc2)c1 | 1.73
COc1ccc(OC)c(CNC(=O)C2CCN(S(=O)(=O)N3CCC(C)CC3)CC2)c1 | 3.66
CCOC(=O)c1ccc(-c2ccc(C=O)o2)cc1 | 7.62
CCn1cc(/C=C(\NC(=O)c2ccccc2F)C(=O)NCc2ccccc2)c2ccccc21 | -0.0235
Cc1ccc2[nH]c(/C(C#N)=C/c3ccc(F)cc3)nc2c1 | -4.76
CC1CCCCN1C(=O)CCn1cnc2onc(-c3ccc(F)cc3)c2c1=O (stereo not drawn) | 3.1
COc1ccccc1-c1cc(C)nc(N)c1C#N | -5.65
NC(=O)C1CCN(S(=O)(=O)c2ccccc2)CC1 | 1.4
COc1ccc(NC(=O)CN(c2cccc(Cl)c2)S(C)(=O)=O)c(OC)c1 | 3.17
Cc1nc2c(C(=O)NCCC(C)C)cnn2c(O)c1Cc1ccccc1F | 0.0654
CC(C)(C)/N=C(\N=C(\NS(=O)(=O)c1ccccc1)c1ccccc1)c1ccc(Br)cc1 | -0.183
Cc1ccc(-c2onc(C)c2C)cc1S(=O)(=O)N1CCN(Cc2ccccc2)CC1 | -6.26
CN(c1cccc(NC(=O)COc2ccc(Cl)cc2Cl)c1)S(C)(=O)=O | 6.86
COc1cc(CN(C)CCN(C)C)cc(OC)c1O | -1.5
COc1ccc(C2C3=C(O)CCCC3=NC(C)=C2C(=O)Nc2ccccc2F)c(OC)c1 (stereo not drawn) | -6.36
CCCc1cc(O)n2nc(N)nc2n1 | -0.671
CC1=NN2C(=N)/C(=C\c3cc(C)n(-c4ccccc4)c3C)C(=O)N=C2S1 | 0.484

SMILES | % Inhibition @ 10 uM [%]
CC(=O)N1CCC(N2CCN(c3ccccn3)CC2)CC1 | -0.274
COCCn1c(Sc2nc(C)cs2)nc2c1c(=O)[nH]c(=O)n2C | 0.758
CC1CCCC(N2CCN(CCOCCO)CC2)C1 (stereo not drawn) | 0.472
Cc1nc(=O)c(-c2ccccc2)c(C)n1CCc1c[nH]c2ccccc12 | -5.48
c1ccc(Cc2nn3c(-c4ccccc4)nnc3s2)cc1 | 3.38
CCCCCOC(=O)Nc1nnc(CCC)s1 | -4.08
O=C(O)c1cnc2cc(N3CCOCC3)c(F)cc2c1O | 0.51
COc1ccc(/C=C\c2onc(C)c2S(=O)(=O)N2CCC(C(=O)Nc3nccs3)CC2)cc1 | -11
CCN(CC)S(=O)(=O)c1ccc(NC(=O)COc2ccc(Br)cc2)cc1 | -6.16
Cc1ccc2c(C)c(C(=O)N(Cc3sccc3C)C3CCS(=O)(=O)C3)oc2c1 (stereo not drawn) | 3.57
O=C1OC(c2ccccc2F)=N/C1=C\c1coc2ccccc2c1=O | -11.7
Cc1ccc(OCc2nc(-c3ccc(C(=O)NCCN4CCCCC4C)cc3)oc2C)cc1 (stereo not drawn) | -0.591
Nc1[nH]ncc1-n1nnc2ccccc21 | -3.96
O=C(O)COCc1nnc(S)n1-c1ccccc1 | 1.42
O=C(C1c2ccccc2C(=O)N2CCc3ccccc3C12)N1CCN(Cc2ccccc2)CC1 (stereo not drawn) | -5.09
Cc1oc(-c2cccc(F)c2)nc1CSCC(=O)O | -3.78
CCOc1ccccc1N(CC(=O)Nc1cc(C)ccc1C)S(C)(=O)=O | -8.2
Cc1ccc(NC(=O)c2cc3ccc4cccnc4c3[nH]2)nc1 | -1.07
COc1ccc(-c2cc(-c3ccc(OC)cc3)c(C#N)c(SCC(=O)c3ccc(C)cc3)n2)cc1 | -1.97
CCCc1nc(-c2ccc(-c3ccc(OC)cc3)nc2OCC)no1 | -3.13
COc1ccc(Nc2cc(C)nc3c(C)cccc23)cc1OC | -5.13
COCCNC(=O)CCC(=O)n1ncc2ccc(Cl)cc21 | -1.11
COc1cc(C2C(C#N)=C(N)Oc3[nH]nc(C(F)(F)F)c32)cc(OC)c1OC (stereo not drawn) | -4.24
COc1ccc(/C=C/C(=O)N2CCN(c3ccc([N+](=O)[O-])cc3)CC2)cc1 | 3.76
Cc1c(N2C(=O)CCC2=O)c(=O)n(-c2ccccc2)n1C | -3.04

SMILES | % Inhibition @ 10 uM [%]
CCC(C)Sc1nc2c(c(=O)n(C)c(=O)n2C)n1Cc1ccccc1 (stereo not drawn) | 5.58
CCOc1ccc(NC2=C(Cl)C(=O)N(c3cccc(C)c3)C2=O)cc1 | -0.864
COCCNC(=O)c1ccc(CS(=O)Cc2ccc(Cl)cc2)o1 (stereo not drawn) | 5.88
O=C(Nc1c(C(=O)c2ccc(F)cc2)oc2ccccc12)c1cc(=O)c2ccccc2o1 | -8.95
OCC1(CO)COC2(CCN(Cc3ccccc3)CC2)N1 | -6.7
Cc1ccc(-n2nc3c(c2NC(=O)Cc2ccc(F)cc2)CSC3)cc1 | 14.7
COc1ccc(N2CCN(Cc3cc(OC)c(OC)c(OC)c3)CC2)cc1 | -4.94
O=C(NCCN1CCN(C(=O)c2cc(F)c(F)cc2Cl)CC1)c1cc(F)c(F)cc1Cl | -0.597
C=CCNc1nc(Cl)nc(NC(C)C)n1 | 3.44
CCCn1c(=N)c(C(=O)NCc2ccccc2)cc2c(=O)n3cc(C)ccc3nc21 | -1.47
COc1ccc(-n2nc3c(N4CCCC(C(=O)NC5CCCC5)C4)nnc(C)c3c2C)cc1 (stereo not drawn) | 2.25
Cc1ccc(S(=O)(=O)N2CCN(S(=O)(=O)c3ccc(C)cc3)C2)cc1 | 1.52
CN1CCN(c2nc(-c3ccc(C(=O)NC(Cc4ccc5ccccc5c4)C(=O)NCC#N)cc3)cs2)CC1 (stereo not drawn) | -1.41
Cc1ccc2nc(C)c(CN(C)C)c(O)c2c1 | 2.36
COc1ccc(CN(C)C2CCN(C)CC2)cc1Br | 2.23
CC1=C(C(=O)Nc2ccc(C)cc2)C(c2ccco2)NC(=O)N1 (stereo not drawn) | -1.76
Cc1ccc(-n2c(C)cc(C(=O)C(=O)Nc3nncs3)c2C)cc1C | -1.06
Cc1ccc(C(=O)CCC(=O)Nc2ccc(C)c(Cl)c2)cc1 | 1.67
O=C(NCc1ccccc1)N1CCOCC1 | 4.66
Cn1c(=O)n(C)c2cc(/C=C3/SC(=O)N(Cc4ccccc4)C3=O)ccc21 | 6.17
COc1cc2ccccc2cc1C(=O)Nc1cccc(NC(=O)c2ccccc2)c1 | 2.7
O=S(=O)(c1ccc(F)cc1)c1c(-c2ccc(F)cc2)cn2ccccc12 | 5.05
CC1CCc2nc(N3CCN(Cc4ccccc4)CC3)nc(C(F)(F)F)c2C1 (stereo not drawn) | -0.972
CCOC(=O)c1sc2ncnc(O)c2c1C | 17.4
